# Out of some 270,000 compounds screened, about 620 (0.23%) were called active. This list was built around the results that the source calls inconclusive (neither active nor inactive); the mix of calls is not that of the screen. Calls follow the shape of the dose curve; as a rule, active = well fitted inhibition curve with a large enough effect in the polarisation, with a control signal flat (not every such curve was filed as active); inconclusive = small, poorly fitted or top-dose-only effect, or effect the other way, or a change in a side signal; inactive = no such curve, though single readings can be large or run the other way; the % refers to the polarisation. Potencies of inconclusive entries are doubtful fits and often do not repeat. A note “side channel” means that the fit belongs to a control or component signal, not to the main read-out.
# Biological target: Menin (Homo sapiens) (UniProt O00255)
# UniProt O00255, sequence (O00255 whole entry, looked up): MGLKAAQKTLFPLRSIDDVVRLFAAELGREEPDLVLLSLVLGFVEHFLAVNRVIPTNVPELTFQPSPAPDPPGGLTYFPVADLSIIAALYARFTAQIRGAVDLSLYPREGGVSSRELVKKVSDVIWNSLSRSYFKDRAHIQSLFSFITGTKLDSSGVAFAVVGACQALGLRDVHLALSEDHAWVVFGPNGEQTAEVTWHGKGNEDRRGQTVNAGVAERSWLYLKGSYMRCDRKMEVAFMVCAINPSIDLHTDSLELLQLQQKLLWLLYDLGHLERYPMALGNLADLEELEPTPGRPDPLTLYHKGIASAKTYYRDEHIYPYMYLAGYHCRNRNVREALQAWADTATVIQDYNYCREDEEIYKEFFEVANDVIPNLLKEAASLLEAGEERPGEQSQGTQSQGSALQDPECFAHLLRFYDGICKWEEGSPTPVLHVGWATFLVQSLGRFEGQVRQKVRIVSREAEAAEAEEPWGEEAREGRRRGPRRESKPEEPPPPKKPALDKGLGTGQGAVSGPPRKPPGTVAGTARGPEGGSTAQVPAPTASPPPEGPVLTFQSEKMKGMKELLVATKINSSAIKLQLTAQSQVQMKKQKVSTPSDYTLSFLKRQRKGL
# Experiment: qHTS Assay for Inhibitors Targeting the Menin-MLL Interaction in MLL Related Leukemias: Competition With Texas Red Labeled MLL-derived Mutant Peptide; as to FP activity change, negative = inhibition: % of control where 0% means no effect
# Conditions: fluorescence polarization; FP activity change, negative = inhibition: at 61.6 µM (top of the series)
# Description: qHTS Assay for Inhibitors Targeting the Menin-MLL Interaction in MLL Related Leukemias NIH Chemical Genomics Center [NCGC] NIH Molecular Libraries Probe Centers Network [MLPCN] MLPCN Grant: MH084875-01A1 Assay Submitter (PI): Jolanta Grembecka, Tomasz Cierpicki, University of Virginia Translocations of the MLL (Mixed Lineage Leukemia) gene are frequently found in human leukemias affecting both children and adults. Fusion of MLL to one of more than 60 genes results in generation of oncogenic proteins upregulating Hox genes, which are vital to blood cell development. Patients harboring fusion of the MLL gene suffer from aggressive leukemias and respond poorly to available therapies. All of the oncogenic fusion proteins have a preserved N-terminal fragment of MLL that has been identified to interact with menin. It has been recently discovered that association with menin is critical to the leukemogenic activity of the MLL fusion oncoproteins. Selective targeting of the menin-MLL interaction could provide an attractive therapeutic approach to develop novel drugs for MLL-related leukemias. Small molecules blocking the menin-MLL interaction should reverse the oncogenic potential of MLL fusion proteins. We have developed and optimized a fluorescence polarization-based assay for the identification of Menin-MLL inhibitors. The assay was run employing two different MLL-derived peptides. The present assay uses a 12 amino acid peptide labeled with fluorescein at its N-terminus. This peptide consists of the menin high affinity binding motif from MLL and is potently bound by menin. Another peptide with a mutated sequence, labeled with Texas Red, was used in parallel as a less stringent screen for inhibitors.
# The Menin protein, the MLL-wild type (w.t.) derived peptide (N-terminal 12 amino acids), the MLL-derived peptide labeled with Texas Red and the MLL-w.t. peptide labeled with Fluorescein were kindly supplied by laboratory of Dr. Jolanta Grembecka, University of Virginia. All protein and peptide solutions were stored in single use aliquots at -80C. The Eu3+ Cyrptate-conjugated mouse monoclonal antibody anti-6 Histidine (Eu3+-AB) and the Streptavidin-XL665 conjugate (XL665) were purchased from Cisbio International (Bedford, MA). All antibody and XL665 conjugate solution stocks were stored in single use aliquots at -20C. The Buffer components for all assays were purchased from Sigma-Aldrich (St. Louis, MO) and Invitrogen (Carlsbad, CA). FP Assay Reagents: 1. FP reaction buffer: 50 mM Tris-HCl pH 7.5, 50 mM NaCl, 1mM DTT. Before use, 0.05% BSA is added. 2. Menin protein, MLL-w.t. labeled with fluorescein, MLL-mutant peptide labeled with texas red. Stored in singe use aliquots at -80C. 3. MLL-w.t. unlabeled peptide as positive control: 10 uM final in FP buffer. FP Assay Procedure: 1. Prepare Menin at 200 nM, MLL-w.t.-fluorescein at 25 nM, and MLL-mutant-texas red at 50 nM mixture in FP buffer. 2. Prepare Menin at 200 nM, MLL-w.t.-fluorescein at 25 nM, MLL-mutant-texas red at 50 nM, and 10 uM MLL-w.t. unlabeled mixture in FP buffer. 3. Prepare MLL-w.t.-fluorescein at 25 nM and MLL-mutant-texas red at 50 nM mixture in FP buffer. 3. Dispense 4 ul per well of reagent in step 1 in columns 2, 4 - 48 in a black 1536 well plate, dispense 4 ul per well of reagents from steps 2 and 3 in columns 1 and 3 respectively. Incubate plate at ambient for 15 minutes. 4. Transfer 23 nl per well of compound to plate and incubate at ambient for 1 hr. 5. Read fluorescence polarization for each label using the PerkinElmer Envision. Envision protocol for fluorescein: FITC FP Dual Enh Mirror, Excitation filter 480, Emission filter (1) P-pol 535, Emission filter (2) S-pol 535 Envision protocol for texas red: FP Dual Enh Mirror, Excitation filter 555, Emission filter (1) P-pol 632, Emission filter (2) S-pol 632
# Potency is read from the fitted curve at half-maximal effect; tags tell the direction and shape of the fitted curve or compound fluorescence and quenching.
SMILES,Potency,"FP activity change, negative = inhibition"
CSc1nccc(N/N=C/c2ccccc2)n1,"inconclusive: 39.8 µM [fluorescent, single point]",
COc1ccc(Cl)cc1NC(=O)CN(C)C1CCCCC1,"inconclusive: 17.8 µM [fluorescent, side channel, partial curve]",
CCN(CC)c1cccc(OC2=NS(=O)(=O)c3ccccc32)c1,,inactive: 10.2%
Cc1ccnc(NC(=O)/C=C/c2ccccc2[N+](=O)[O-])c1,"inconclusive: 17.8 µM [quencher, side channel, partial curve]",
COc1ccc(CN2CCN(C(=O)CC(C)C)CC2)cc1OC,"inconclusive: 3.55 µM [inhibitor, partial curve]",
CN1C(=O)S/C(=C\c2ccccc2OCc2ccc(C(=O)O)cc2)C1=O,"inconclusive: 10 µM [quencher, side channel, partial curve]",
CCOc1ccc(/C=C2\SC(=S)N(CCC(=O)Nc3ccc(C(=O)O)cc3)C2=O)cc1,"inconclusive: 39.8 µM [fluorescent, side channel, single point]",
COC(=O)c1cc(OC)c(OC)cc1NC(=O)Nc1ccc(OC)cc1,,inactive: -2.7%
O=C(N/N=C/c1cc([N+](=O)[O-])ccc1O)C(O)(c1ccccc1)c1ccccc1,"inconclusive: 12.6 µM [quencher, side channel, partial curve]",
COc1ccc(-c2[nH]c(-c3ccc(C(=O)O)cc3)nc2-c2ccccc2)cc1,"inconclusive: 17.8 µM [quencher, side channel, partial curve]",
COc1ccc(C2C3=C(CC(C)(C)CC3=O)Oc3ncn(Cc4ccccc4)c(=N)c32)cc1 (stereo not drawn),"inconclusive: 8.91 µM [fluorescent, side channel, partial curve]",
COc1ccc(NS(=O)(=O)c2cc(NC(=O)/C=C/c3ccccc3OC)ccc2N2CCCCC2)cc1,"inconclusive: 7.08 µM [inhibitor, full curve]",
COc1ccc(NC(=O)CO/N=C2/CCCc3nonc32)c(OC)c1,"inconclusive: 12.6 µM [quencher, side channel, partial curve]",
O=C(CN1C(=O)S/C(=C\C=C\c2ccccc2)C1=O)Nc1cccc(O)c1,"inconclusive: 35.5 µM [quencher, side channel, single point]",
COc1ccccc1C1c2ccc3ccccc3c2Oc2ncn(CCCO)c(=N)c21 (stereo not drawn),"inconclusive: 12.6 µM [fluorescent, side channel, partial curve]",
COc1ccc(C(=O)Nc2cc(C(C)=O)c(C)oc2=O)cc1,,inactive: 2.82%
CC(C)(C)NC(=O)CCN(/N=C/c1ccncc1)C1=NS(=O)(=O)c2ccccc21,"inconclusive: 31.6 µM [inhibitor, partial curve]",
Cc1ccc(C2Nc3ccccc3C(=O)N2Cc2ccco2)cc1 (stereo not drawn),,inactive: -19.4%
O=C(OCc1cc(=O)n2c(n1)sc1ccccc12)c1ccc(O)cc1,"inconclusive: 31.6 µM [quencher, single point]",

SMILES,Potency,"FP activity change, negative = inhibition"
Cc1ccc(/C=C/S(=O)(=O)NCc2ccc(F)cc2)cc1,"inconclusive: 39.8 µM [inhibitor, single point]",
Cc1ccc(C(=O)c2cc(C)sc2NC(=O)CN2CCN(C(=O)c3ccco3)CC2)cc1,"inconclusive: 7.94 µM [fluorescent, side channel, full curve]",
N#Cc1c(C(F)(F)F)cc(-c2ccc(Cl)cc2)[nH]c1=O,"inconclusive: 31.6 µM [quencher, side channel, single point]",
Cc1ccc2nc3c(cc(C(=O)NCCc4ccccc4)c(=N)n3CCN3CCOCC3)c(=O)n2c1,"inconclusive: 17.8 µM [inhibitor, partial curve]",
Cc1ccc(C)c(/C=C2\CCn3c2nc2cc(C(=O)O)ccc2c3=O)c1,"inconclusive: 35.5 µM [inhibitor, single point]",
Clc1ccccc1CSc1nnc(/C=C/c2ccccc2)o1,"inconclusive: 0.708 µM [inhibitor, partial curve, poor fit]",
CCOc1ccccc1NC(=O)N1CCCN(c2ncccc2C#N)CC1,"inconclusive: 44.7 µM [inhibitor, single point]",
NC(=O)NCC(c1ccccc1)C1CCCCC1 (stereo not drawn),"inconclusive: 8.91 µM [inhibitor, full curve, poor fit]",
FC(F)(F)c1cc(-c2ccco2)nc(NCc2ccccc2)n1,"inconclusive: 22.4 µM [quencher, side channel, single point]",
CCOC(=O)CNc1c(-c2ccc(O)cc2)nc2ccccn12,,inactive: 2.18%
O=C(CSc1nnc(-c2ccco2)o1)c1ccccc1,"inconclusive: 25.1 µM [quencher, side channel, single point]",
O=C(NCCc1ccccc1)C(=O)Nc1ccc([N+](=O)[O-])cc1,"inconclusive: 39.8 µM [quencher, side channel, partial curve]",
Cc1nc2ccc(NC(=O)c3ccc(Cl)c(S(=O)(=O)N(C)c4ccccc4)c3)cc2s1,"inconclusive: 17.8 µM [quencher, side channel, partial curve]",
COc1ccc2c(Cl)c(C(=O)N/N=C3\CCCC(=O)C3)sc2c1,"inconclusive: 22.4 µM [quencher, side channel, partial curve]",
N/C(=N\OC(=O)c1ccccc1Br)c1ccc([N+](=O)[O-])cc1,"inconclusive: 31.6 µM [quencher, side channel, single point]",
CCOc1ccc(C(=O)NCc2ccccn2)cc1,,inactive: -7.47%
O=C1CCC/C(=N/Nc2ccc(Cl)cc2)C1,"inconclusive: 14.1 µM [quencher, side channel, partial curve]",
CC1CCCCC1NC(=O)C1CCC(CNS(=O)(=O)c2ccc(F)cc2)CC1 (stereo not drawn),"inconclusive: 35.5 µM [fluorescent, single point]",
Cc1ncoc1C(=O)N1CCCC(C(=O)c2cccc(OC(C)C)c2)C1 (stereo not drawn),"inconclusive: 10 µM [inhibitor, single point]",
